In assay [1] the target is FLAG-tagged p75 (p75-FLAG) (UniProt P08138). As to the kind of experiment: co-IP; lysates of HEK293T cells expressing FLAG-tagged proteins incubated with anti-FLAG M2 agarose beads overnight at 4 °C; eluted with FLAG peptides; bound proteins by immunoblotting.
Assay [2] addresses HA- and FLAG-tagged EGFR (HA-EGFR-FLAG) (human) (UniProt P00533). The description is as above.
The target in assay [3] is EGFR bearing an EGFP and a biotin acceptor peptide (Bio tag) at its C-terminus (EGFR-EGFP-Bio), full length (human) (UniProt P00533). Briefly: pull-down; streptavidin pull-down: lysates of HEK293T cells coexpressing HA-BirA and the EGFP-Bio-tagged EGFR construct incubated with Dynabeads M-280 Streptavidin overnight at 4 °C; lysis buffer 110 mM potassium acetate, 20 mM Hepes pH 7.2, 2 mM magnesium acetate, 0.5% Triton X-100, 1 mM DTT; bound proteins by immunoblotting.

Amino acid sequences for entries named in this document (tags omitted). Residues count along the entry.
UniProt P08138, residues 29-427: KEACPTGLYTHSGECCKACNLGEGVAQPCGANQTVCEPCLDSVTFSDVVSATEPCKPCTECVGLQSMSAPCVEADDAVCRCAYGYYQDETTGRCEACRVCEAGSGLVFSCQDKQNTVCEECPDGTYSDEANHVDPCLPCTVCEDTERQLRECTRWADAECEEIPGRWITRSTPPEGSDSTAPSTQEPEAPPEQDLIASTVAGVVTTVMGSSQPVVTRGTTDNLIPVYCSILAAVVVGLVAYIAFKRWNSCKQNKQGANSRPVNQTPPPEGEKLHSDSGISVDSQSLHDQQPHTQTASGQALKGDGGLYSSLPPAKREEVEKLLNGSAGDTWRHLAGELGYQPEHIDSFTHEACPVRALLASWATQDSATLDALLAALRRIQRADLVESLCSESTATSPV
UniProt O43747: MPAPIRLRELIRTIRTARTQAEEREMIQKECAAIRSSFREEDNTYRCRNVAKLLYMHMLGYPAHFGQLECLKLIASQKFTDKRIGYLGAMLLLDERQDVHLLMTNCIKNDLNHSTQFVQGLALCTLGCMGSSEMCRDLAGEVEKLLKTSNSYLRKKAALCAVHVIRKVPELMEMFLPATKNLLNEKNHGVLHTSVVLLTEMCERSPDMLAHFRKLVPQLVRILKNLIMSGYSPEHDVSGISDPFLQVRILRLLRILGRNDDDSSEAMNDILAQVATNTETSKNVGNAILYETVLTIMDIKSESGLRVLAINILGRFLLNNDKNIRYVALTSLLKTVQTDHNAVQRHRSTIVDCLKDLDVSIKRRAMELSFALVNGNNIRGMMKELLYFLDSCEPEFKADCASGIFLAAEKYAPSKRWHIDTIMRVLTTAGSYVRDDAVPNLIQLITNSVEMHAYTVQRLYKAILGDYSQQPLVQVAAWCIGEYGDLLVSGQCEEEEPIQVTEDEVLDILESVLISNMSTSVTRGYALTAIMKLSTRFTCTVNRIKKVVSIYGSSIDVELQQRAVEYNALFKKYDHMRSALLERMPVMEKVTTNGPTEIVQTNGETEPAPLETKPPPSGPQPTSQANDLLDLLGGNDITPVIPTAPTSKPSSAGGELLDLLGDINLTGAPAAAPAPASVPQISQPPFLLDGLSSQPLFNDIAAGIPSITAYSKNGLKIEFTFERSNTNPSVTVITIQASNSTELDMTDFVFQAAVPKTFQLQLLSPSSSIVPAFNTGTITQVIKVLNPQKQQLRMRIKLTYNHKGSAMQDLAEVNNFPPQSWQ

Assay [4] concerns the target cytosolic tail of EGFR (EGFR^969-1210-EGFP-Bio) (human) (UniProt P00533). Described as above.
Assay [5] deals with N-terminal fragment of EGFR containing the transmembrane domain (EGFR^1-668-EGFP-Bio) (human) (UniProt P00533). The description is as above.
Assay [6] has as its target EGFR (Y1172A)-EGFP-Bio (human) (UniProt P00533). The description is as above.
Assay [7] addresses fragment containing the cytosolic domain of EGFR (EGFR^669-1210-EGFP-Bio) (human) (UniProt P00533). The description is as above.

These are yes or no findings as the source states them, for the method shown. Binding seen in cells or lysates may run through a third protein. Some binding calls cover weakened binding; strength is not graded here.

“gamma subunit of AP-1 (AP1γ1) (from UniProt O43747 1-822)”: the binding entry in assay [1] is “no binding”; in assay [2], “binds”; in assay [3], “binds”; in assay [4], “binds”; in assay [5] it was “binds weakly”; in assay [6] it was “binds”. In assay [7], the binding result was “binds”.

For the origin of these results see PMC10017364.
